# Assay results reported in publication PMC4336329 (PLoS ONE, 2015).
# The campaign covered roughly 310,000 compounds. About 2,200 (0.71%) showed an effect of 50% or more. The effect is printed as a negative number. Some of the results follow.
# Target: human ether-à-go-go-related gene (hERG) potassium channel (human, UniProt Q12809)
# Assay: primary screen, population patch clamp on CHO cells stably expressing hERG
# Chain of human ether-à-go-go-related gene (hERG) potassium channel (Q12809 whole entry, looked up): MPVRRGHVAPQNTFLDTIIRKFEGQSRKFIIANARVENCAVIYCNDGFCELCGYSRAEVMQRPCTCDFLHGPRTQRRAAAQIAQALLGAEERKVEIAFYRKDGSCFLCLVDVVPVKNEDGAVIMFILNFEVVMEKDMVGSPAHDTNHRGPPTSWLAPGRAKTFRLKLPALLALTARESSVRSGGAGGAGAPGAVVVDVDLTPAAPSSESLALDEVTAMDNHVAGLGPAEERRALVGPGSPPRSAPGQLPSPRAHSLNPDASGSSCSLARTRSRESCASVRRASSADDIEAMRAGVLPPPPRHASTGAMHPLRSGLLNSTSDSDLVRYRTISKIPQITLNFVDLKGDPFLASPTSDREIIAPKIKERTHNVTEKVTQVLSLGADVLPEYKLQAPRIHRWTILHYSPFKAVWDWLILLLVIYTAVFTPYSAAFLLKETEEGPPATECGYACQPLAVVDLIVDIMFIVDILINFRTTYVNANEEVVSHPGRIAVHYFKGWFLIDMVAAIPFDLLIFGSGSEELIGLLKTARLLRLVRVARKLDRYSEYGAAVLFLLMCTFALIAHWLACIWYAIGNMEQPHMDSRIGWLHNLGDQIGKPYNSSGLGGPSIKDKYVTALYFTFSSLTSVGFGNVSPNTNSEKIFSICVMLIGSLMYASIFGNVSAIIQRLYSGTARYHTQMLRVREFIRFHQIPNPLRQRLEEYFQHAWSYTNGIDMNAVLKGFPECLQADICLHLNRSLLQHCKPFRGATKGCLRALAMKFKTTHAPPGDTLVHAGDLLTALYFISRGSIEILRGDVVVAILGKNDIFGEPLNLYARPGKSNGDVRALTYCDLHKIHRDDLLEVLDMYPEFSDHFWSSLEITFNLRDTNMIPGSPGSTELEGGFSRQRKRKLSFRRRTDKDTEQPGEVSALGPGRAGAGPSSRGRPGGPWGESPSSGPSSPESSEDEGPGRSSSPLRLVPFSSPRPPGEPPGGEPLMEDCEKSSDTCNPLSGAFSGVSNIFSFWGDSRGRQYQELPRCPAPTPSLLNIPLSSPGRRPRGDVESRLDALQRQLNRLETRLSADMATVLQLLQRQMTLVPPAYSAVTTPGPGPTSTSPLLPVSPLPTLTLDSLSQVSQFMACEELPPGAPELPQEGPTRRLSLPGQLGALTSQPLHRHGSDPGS
row,Structure (SMILES),"hERG current change (%, negative = inhibition) at 1uM"
1,CN(Cc1cccnc1)C(=O)c1cc(COc2ccc3ncccc3c2)on1,9.64%
2,Cc1cc(C(=O)Nc2cc(C(F)(F)F)ccc2N2CCOCC2)no1,6.68%
3,CN(C)c1ccc(P(=O)(OCc2ccccc2)C(O)c2ccc(Br)cc2)cc1 (stereo not shown),9.48%
4,COC(=O)Nc1sc2c(c1C(N)=O)CCCCCC2,13%
5,COC(=O)[C@@]1(Cc2ccc(OC)cc2)[C@H]2c3cc(C(=O)N(C)C)n(CCSCCO)c3C[C@H]2CN1C(=O)c1ccccc1,11.5%
6,Cc1ccc(NS(=O)(=O)c2cccc([N+](=O)[O-])c2)nc1,13.1%
7,O=Cc1ccccc1OS(=O)(=O)c1ccccc1,8.42%
8,CCCc1cc(=O)oc2cc(OCC(=O)Nc3ccc(S(N)(=O)=O)cc3)ccc12,9.5%
9,N#CCCN(C(=O)COC(=O)C1CCN(S(=O)(=O)c2ccc3c(c2)OCCO3)CC1)c1ccccc1,7.27%
10,O=C(COC(=O)c1cc(-c2cccs2)nn1-c1ccccc1)Nc1ccc(F)c([N+](=O)[O-])c1,6.55%
11,CCC(=O)OC1(C)C(=O)C=C2C=C(CCCCNC(=O)OC(C)(C)C)OC=C2C1=O (stereo not shown),7.75%
12,COc1ccc2c(c1)[nH]c1c(=O)n(CCN3CCCC3)cnc12,-17.4%
13,O=C(NC(=O)c1c(F)cccc1F)O/N=C1\CCCc2occc21,14.5%
14,CN(CCC#N)C(=O)COC(=O)/C=C/c1cccs1,11.9%
15,CCN(CC)CCNC(=O)c1sc2ncn(CC(=O)Nc3ccc(C)c(Cl)c3)c(=O)c2c1C,-2.5%
16,COC(=O)[C@H](C)NC(=O)Nc1ccc(OC)c(OC)c1,7.67%
17,NC(=O)C1CCN(C(=O)CSc2ncccn2)CC1,12%
18,O=C1NC[C@H](CC2CCCCC2)N(CC2CCCCC2)C1=O,4.79%
19,COc1ccc(N2CCN(CCCNC(=O)c3cc4sccc4n3C)CC2)cc1,-77.7%
20,COc1ccc(CC(=O)NNS(=O)(=O)c2cccc([N+](=O)[O-])c2)cc1OC,16%
21,CCOC(=O)C(NC(=O)c1ccc(Cl)cc1Cl)(Nc1ccc(C)cc1)C(F)(F)F (stereo not shown),9.22%
22,Cc1cc2c(cc1C)CSC(c1ccc(O)cc1)SC2,12.5%

row,Structure (SMILES),"hERG current change (%, negative = inhibition) at 1uM"
1,Cc1c(C)c(C)c(S(=O)(=O)n2[nH]c(=O)c(CCO)c2C)c(C)c1C,4.43%
2,COCC1CCN(C(=O)c2ccc3oc(Cc4ccccc4)nc3c2)C1 (stereo not shown),3.37%
3,C/C(=N\Nc1nc2ccccc2[nH]1)c1ccc2c(c1)OCCO2,0.523%
4,NNC(=O)C(Cc1c[nH]c2ccccc12)NC(=O)c1ccccc1 (stereo not shown),17.5%
5,CC(C)(C)C1CCc2c(sc(N)c2C(N)=O)C1 (stereo not shown),7.56%
6,COc1ccc(CC(=O)Nc2nc(-c3cc(OC)ccc3OC)cs2)cc1,13.1%
7,CCOc1ccc(NC(=O)N2CCC(NC(=O)C(Cc3cccc(F)c3)NC(C)=O)CC2)cc1 (stereo not shown),15.7%
8,COc1cc2c(cc1OC)CN(c1ccc(-c3ccccc3OC)nn1)CC2,10.2%
9,COc1ccc(N2CCN(C(CNC(=O)C(=O)NCC3CCCO3)c3ccco3)CC2)cc1 (stereo not shown),6.64%
10,Cc1ccc(C(=O)c2c3ccc(C(F)(F)F)cc3[n+]([O-])n2CCC(N)=O)cc1,-28.8%
11,CCn1cc(C(=O)NCCCN2CCCC(C)C2)c(=O)c2cc(S(=O)(=O)N3CCc4ccccc4C3)ccc21 (stereo not shown),-64.2%
12,O=C(CN1CCC(n2nnc3cc(F)ccc32)CC1)NCCc1nc2ccccc2[nH]1,3.57%
13,CC1CCN(C(=O)c2[nH]cnc2C(=O)N[C@@H](CCCCNC(=O)OC(C)(C)C)C(=O)OC(C)(C)C)CC1,8.02%
14,CCCN(CCC)CCNC(=O)CCC(=O)Nc1ccc2nc(N3CCN(C)CC3)cc(C)c2c1,10.5%
15,COc1ccc2[n-]c(S(=O)Cc3ncc(C)c(OC)c3C)nc2c1.COc1ccc2[n-]c(S(=O)Cc3ncc(C)c(OC)c3C)nc2c1.[Mg+2] (stereo not shown) [49681830],9.37%
16,CCC(C)(C)NC(=O)C(c1cccnc1)N(C(=O)c1csnn1)c1ccc(C)cc1 (stereo not shown),15.7%
17,O=C(COc1ccccc1)NCCc1nc2ccccc2[nH]1,2.76%
18,COc1ccc(-c2cc3ccccc3oc2=O)cc1NC(=O)c1cccnc1,-7.29%
19,CCN(CC(=O)N1CCCCC1)S(=O)(=O)c1ccccc1,-10.3%
20,Cc1ccc(C(=O)OCC(=O)N2C(C)CCCC2C)s1 (stereo not shown),5.5%
21,COc1ccc(CSC2=NCCN2)cc1Cl.Cl,-7.52%
22,CC(C)c1ccc(NC(=O)c2cc(Br)ccc2Br)cc1,6.59%

row,Structure (SMILES),"hERG current change (%, negative = inhibition) at 1uM"
1,Cc1ccc(CN2CCC(NC(=O)c3ccccc3)CC2)cc1,-52.8%
2,O=c1[nH]c(Cc2cccs2)nc2scc(-c3ccc(Cl)cc3)c12,-3.08%
3,Cc1cc(C)cc(NC(=O)N(C)Cc2ccccc2)c1,17.5%
4,CCOc1ccc(CC(=O)Nc2ccc(-c3ccc4nnc(C)n4n3)cc2)cc1,1.75%
5,O=C(NNC1=C(C(=O)C(F)(F)F)CCC1)c1cccnc1,6.24%
6,CCOC(=O)N1CCN(C(=O)CN(C2CCCCC2)S(C)(=O)=O)CC1,9.97%
7,CCOc1ccc(NC(=O)C(=O)N/N=C\c2ccc(CNS(=O)(=O)c3ccccc3)o2)cc1,-2.54%
8,Cc1ccc(C(=O)CCC(=O)N2CCN(C(=O)c3ccco3)CC2)cc1,-23.9%
9,N/C(=N\OC(=O)Cc1cccs1)c1cccc([N+](=O)[O-])c1,6.08%
10,O=C(NNc1cc(N2CCOCC2)nc(N2CCOCC2)n1)C12CC3CC(CC(C3)C1)C2,9.43%
11,CCOc1ccc(/C=C\C(C)=N\O)cc1,12.6%
12,Cc1ccc(NC(=O)c2ccc(Cl)nc2)cc1,13.4%
13,O=C(Cc1nc2ccccc2s1)c1ccc(O)cc1O,6.12%
14,CCOC(=O)C1CCN(S(=O)(=O)c2ccc(-c3nc4ccccc4s3)s2)CC1,4.56%
15,O=C(Nc1ccc2nc3n(c(=O)c2c1)CCCCC3)c1ccccn1,3.03%
16,Cc1cccc(NC(=O)Nc2ccc(OCc3ccccc3)cc2)n1,11.6%
17,CC(C)NC(=S)N/N=C/c1c[nH]c2ccccc12,7.86%
18,CCOC(=O)C1CCN(C(=O)CCNC(=O)c2cc(OC)c(OC)c(OC)c2)CC1,10.7%
19,Oc1ccc(/C(Cc2ccc3ccccc3n2)=N\Nc2ccccc2)c(O)c1,20.6%
20,Cc1ccc(-n2ncc(C(=O)NCc3ccc4c(c3)OCO4)c2NC(=O)c2ccco2)cc1C,4.3%
21,COc1cccc(-n2c(/C=C/c3ccccn3)nc3ccccc3c2=O)c1,12.7%
22,Cc1ccc(NS(=O)(=O)c2ccc(C(=O)N3CC(C)OC(C)C3)cc2)cc1 (stereo not shown),8.63%

row,Structure (SMILES),"hERG current change (%, negative = inhibition) at 1uM"
1,Cc1ccc(NCc2nnc(SCC(=O)c3ccccc3)n2Cc2ccco2)c(C)c1,8.86%
2,Cc1c(Nc2nc(C(F)(F)F)nc3ccccc23)c(=O)n(-c2ccccc2)n1C,8.07%
3,Cc1ccc2nc(Cl)c(/C=N/Nc3ccc(C(=O)O)cc3)cc2c1,13.9%
4,COc1ccc(S(=O)(=O)N2CCCC(C(=O)NCC3CCCO3)C2)cc1Cl (stereo not shown),14.3%
5,Nc1nonc1-n1nnc(C(=O)N/N=C/c2ccc(F)cc2)c1-c1ccc2c(c1)OCO2,-4.12%
6,Cc1nn(Cc2ccc(C(=O)O)o2)c(C)c1[N+](=O)[O-],8.13%
7,CCC(C)NC(=O)c1ccc(CN2CCc3ccccc3C2)cc1 (stereo not shown),11.9%
8,COc1ccc(C(=O)Nn2c(C)nc3ccccc3c2=O)cc1OC,17.4%
9,O=C(CSc1nc2c(c(=O)[nH]1)CN(Cc1ccc(F)cc1)CC2)Nc1ccc(F)cc1,-5.64%
10,Cc1cccc(NC(=O)COC(=O)CNC(=O)C2CCCCC2)c1,3.25%
11,c1coc(CNc2ncnc3c2oc2ccccc23)c1,2.39%
12,O=C(Nc1ccccc1C(F)(F)F)c1ccc2nccnc2c1,14.9%
13,O=C(NCC1CCCO1)/C(=C/c1ccccc1F)NC(=O)c1ccccc1 (stereo not shown),10%
14,CCOC(=O)CNC(=O)CSc1nnc(-c2ccc(OC)cc2)n1CC,12%
15,Cn1nnnc1SCC(=O)N1CCN(c2ccccc2)CC1,2.03%
16,Cc1ccc(-n2c(CCc3ccccc3)nnc2SCC(=O)NCc2ccccc2)cc1C,9.84%
17,COc1cc(OC)cc(C(=O)NC(C(=O)O)C23CC4CC(CC(C4)C2)C3)c1 (stereo not shown),10.7%
18,C/C(=N\N1CCN(Cc2ccccc2)CC1)c1ccco1,8.67%
19,S=C(NCCc1ccccc1)N1CCN(C23CC4CC(CC(C4)C2)C3)CC1,-22.1%
